Data on ten molecules can be found in PMC5066494, “Interaction between RNA helicase ROOT INITIATION DEFECTIVE 1 and GAMETOPHYTIC FACTOR 1 is involved in female gametophyte development in Arabidopsis” (Journal of Experimental Botany, 2016).

These are yes or no findings as the source states them, for the method shown. For some of these results: Binding seen in cells or lysates may run through a third protein. Some binding calls cover weakened binding; strength is not graded here. Where a sequence is shown, tags or fusion partners need not be part of it.

Test [1] addresses T1, GAMETOPHYTIC FACTOR 1 (GFA1), full length, fused to the Gal4 DNA-binding domain (Arabidopsis) (UniProt Q9LNC5).
T1 sequence: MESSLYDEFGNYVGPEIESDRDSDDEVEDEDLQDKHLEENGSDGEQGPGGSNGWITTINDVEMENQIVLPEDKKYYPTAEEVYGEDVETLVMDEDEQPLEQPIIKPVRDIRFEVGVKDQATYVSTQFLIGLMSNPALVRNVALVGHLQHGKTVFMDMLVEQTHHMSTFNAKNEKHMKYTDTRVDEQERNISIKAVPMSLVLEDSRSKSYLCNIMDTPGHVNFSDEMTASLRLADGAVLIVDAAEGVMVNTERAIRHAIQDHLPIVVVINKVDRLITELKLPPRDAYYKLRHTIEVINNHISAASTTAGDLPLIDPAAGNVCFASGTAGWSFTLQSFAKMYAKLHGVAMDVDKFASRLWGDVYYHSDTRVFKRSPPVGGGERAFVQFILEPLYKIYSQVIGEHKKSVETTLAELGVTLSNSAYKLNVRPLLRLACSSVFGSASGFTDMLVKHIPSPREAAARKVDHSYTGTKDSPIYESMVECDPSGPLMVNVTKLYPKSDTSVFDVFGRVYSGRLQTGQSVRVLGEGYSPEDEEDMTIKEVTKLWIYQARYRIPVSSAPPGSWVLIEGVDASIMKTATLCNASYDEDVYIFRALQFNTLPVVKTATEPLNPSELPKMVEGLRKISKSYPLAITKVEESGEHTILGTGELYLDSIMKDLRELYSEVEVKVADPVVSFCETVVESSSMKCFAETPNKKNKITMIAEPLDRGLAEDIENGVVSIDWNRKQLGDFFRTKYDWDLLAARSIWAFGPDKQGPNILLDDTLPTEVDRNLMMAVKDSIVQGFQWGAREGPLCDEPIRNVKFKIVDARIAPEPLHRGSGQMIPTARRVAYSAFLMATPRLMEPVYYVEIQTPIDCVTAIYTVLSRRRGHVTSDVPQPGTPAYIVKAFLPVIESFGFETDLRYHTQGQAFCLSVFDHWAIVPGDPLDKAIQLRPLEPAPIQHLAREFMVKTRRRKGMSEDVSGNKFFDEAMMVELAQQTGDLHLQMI
Description: two-hybrid; S. cerevisiae Y2H gold; RID1 or its fragments in pGADT7 (AD), GFA1 in pGBKT7 (BD); growth on SD/−Trp/−Leu/−His/−Ade and blue colour with X-α-gal; 30 °C, 3–5 d.

Test [2] deals with T2, GFA1 fused to the C-terminal part of yellow fluorescent protein (GFA1-YFP C) (Arabidopsis) (UniProt Q9LNC5).
T2 sequence: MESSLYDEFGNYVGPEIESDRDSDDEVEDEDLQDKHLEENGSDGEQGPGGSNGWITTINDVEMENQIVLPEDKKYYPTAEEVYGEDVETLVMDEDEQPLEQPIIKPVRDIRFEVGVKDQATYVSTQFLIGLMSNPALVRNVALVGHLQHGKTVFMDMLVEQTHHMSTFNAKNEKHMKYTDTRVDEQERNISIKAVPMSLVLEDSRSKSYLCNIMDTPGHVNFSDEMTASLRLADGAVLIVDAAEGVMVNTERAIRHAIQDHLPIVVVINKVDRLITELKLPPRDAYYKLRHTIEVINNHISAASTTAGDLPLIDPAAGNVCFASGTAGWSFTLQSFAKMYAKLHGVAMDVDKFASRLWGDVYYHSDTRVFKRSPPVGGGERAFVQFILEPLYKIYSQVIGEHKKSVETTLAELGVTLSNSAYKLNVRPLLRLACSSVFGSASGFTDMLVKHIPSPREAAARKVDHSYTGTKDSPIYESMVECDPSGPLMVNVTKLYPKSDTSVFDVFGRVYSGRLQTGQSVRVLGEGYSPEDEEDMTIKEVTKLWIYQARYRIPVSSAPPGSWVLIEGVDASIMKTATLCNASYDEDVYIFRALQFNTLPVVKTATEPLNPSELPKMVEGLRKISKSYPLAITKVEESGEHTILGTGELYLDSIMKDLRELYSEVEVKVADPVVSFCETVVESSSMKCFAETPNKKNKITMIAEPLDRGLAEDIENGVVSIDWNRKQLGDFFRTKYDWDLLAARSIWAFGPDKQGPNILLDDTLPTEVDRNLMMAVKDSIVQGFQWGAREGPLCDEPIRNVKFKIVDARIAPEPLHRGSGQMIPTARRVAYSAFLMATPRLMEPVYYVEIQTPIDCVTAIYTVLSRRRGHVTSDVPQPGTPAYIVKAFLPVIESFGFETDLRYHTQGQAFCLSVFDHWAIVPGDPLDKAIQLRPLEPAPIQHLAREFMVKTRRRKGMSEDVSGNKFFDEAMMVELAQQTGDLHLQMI
Nature of the test: split reporter; BiFC: 35S::RID1-YFPN and 35S::GFA1-YFPC in N. benthamiana leaf epidermal cells by Agrobacterium infiltration; confocal microscopy after 3 d.

B1: RID1 amino acids 1–309, fused to the Gal4 activation domain (domain or fragment, UniProt F4IE66 1-309)
chain: MPSMAQGELKSFVQNSRPNPKSPTVSPFSMRQKIAEHRRSLPIASVEKRLVEEVQKNDILIIVGETGSGKTTQLPQFLYNAGFCREGKMIGITQPRRIAAVTVAKRVAEECEVQLGQKVGYSIRFDDTTSGSTRLKYMTDGLLLREALLDPHLSRYSVIIVDEAHDRSVHTDVLLALLKKIQRTRSQPVSEKTEFGNVASQVQTTTRDANGPQQNGVLKGYQGRKLSPLKLIIMSASLDARVFSEYFGGAKAVHVQGRQFPVDILYTVHPESDYVDATLVTIFQIHFEEKPGDILVFLTGQDEIESVER
B1: in test [1], the binding entry is reported as “binds”.

B2: RID1 amino acids 265–472, fused to the Gal4 activation domain (domain or fragment, UniProt F4IE66 265-472)
chain: LYTVHPESDYVDATLVTIFQIHFEEKPGDILVFLTGQDEIESVERLVQERLQNIPEDKRKLLPLAIFSALPSEQQMKVFAPAPTGFRKVILATNIAETSITIPGIRYVIDPGFVKARSYDPSKGMESLDVVPASKAQTLQRSGRAGREGPGKSFRLYPEREFEKLEDSTKPEIKRCNLSNIILQLKALGIDDIVGFDFIDKPSRGAII
Consider B2, for which the binding result in test [1] is “binds”.

B3: RID1_(272–460), fused to the Gal4 activation domain (domain or fragment, UniProt F4IE66 272-460)
chain: SDYVDATLVTIFQIHFEEKPGDILVFLTGQDEIESVERLVQERLQNIPEDKRKLLPLAIFSALPSEQQMKVFAPAPTGFRKVILATNIAETSITIPGIRYVIDPGFVKARSYDPSKGMESLDVVPASKAQTLQRSGRAGREGPGKSFRLYPEREFEKLEDSTKPEIKRCNLSNIILQLKALGIDDIVGF
For B3, the binding entry in test [1] is listed as “no binding”.

B4: ROOT INITIATION … 1 (RID1), full length, fused to the Gal4 activation domain (protein, UniProt F4IE66 1-717)
chain: MPSMAQGELKSFVQNSRPNPKSPTVSPFSMRQKIAEHRRSLPIASVEKRLVEEVQKNDILIIVGETGSGKTTQLPQFLYNAGFCREGKMIGITQPRRIAAVTVAKRVAEECEVQLGQKVGYSIRFDDTTSGSTRLKYMTDGLLLREALLDPHLSRYSVIIVDEAHDRSVHTDVLLALLKKIQRTRSQPVSEKTEFGNVASQVQTTTRDANGPQQNGVLKGYQGRKLSPLKLIIMSASLDARVFSEYFGGAKAVHVQGRQFPVDILYTVHPESDYVDATLVTIFQIHFEEKPGDILVFLTGQDEIESVERLVQERLQNIPEDKRKLLPLAIFSALPSEQQMKVFAPAPTGFRKVILATNIAETSITIPGIRYVIDPGFVKARSYDPSKGMESLDVVPASKAQTLQRSGRAGREGPGKSFRLYPEREFEKLEDSTKPEIKRCNLSNIILQLKALGIDDIVGFDFIDKPSRGAIIKALAELHSLGALADDGKLENPVGYQMSRLPLEPVYSKALILANQFNCLEEMLITVAVLSVESIFYDPREKREEARTSKNHFASVEGDHLTYLSVYRESDEFLEKRKAAGSGNNIDKIMKKWCKENYVNSRSLKHARDIYRQIREHVEQIGFNVSSCGNDMLAFRRCLAASFFLKAAQRQLDGTYRALESGEVVHIHPTSVLFRAKPECVIFNELMQTSKKYIKNLTIIDSLWLSELAPHHFQTAE
B4: in test [1], the binding entry was “binds”.

B5: RID1 fused to the N-terminal part of yellow fluorescent protein (RID1-YFP N) (protein, UniProt F4IE66 1-717)
chain: MPSMAQGELKSFVQNSRPNPKSPTVSPFSMRQKIAEHRRSLPIASVEKRLVEEVQKNDILIIVGETGSGKTTQLPQFLYNAGFCREGKMIGITQPRRIAAVTVAKRVAEECEVQLGQKVGYSIRFDDTTSGSTRLKYMTDGLLLREALLDPHLSRYSVIIVDEAHDRSVHTDVLLALLKKIQRTRSQPVSEKTEFGNVASQVQTTTRDANGPQQNGVLKGYQGRKLSPLKLIIMSASLDARVFSEYFGGAKAVHVQGRQFPVDILYTVHPESDYVDATLVTIFQIHFEEKPGDILVFLTGQDEIESVERLVQERLQNIPEDKRKLLPLAIFSALPSEQQMKVFAPAPTGFRKVILATNIAETSITIPGIRYVIDPGFVKARSYDPSKGMESLDVVPASKAQTLQRSGRAGREGPGKSFRLYPEREFEKLEDSTKPEIKRCNLSNIILQLKALGIDDIVGFDFIDKPSRGAIIKALAELHSLGALADDGKLENPVGYQMSRLPLEPVYSKALILANQFNCLEEMLITVAVLSVESIFYDPREKREEARTSKNHFASVEGDHLTYLSVYRESDEFLEKRKAAGSGNNIDKIMKKWCKENYVNSRSLKHARDIYRQIREHVEQIGFNVSSCGNDMLAFRRCLAASFFLKAAQRQLDGTYRALESGEVVHIHPTSVLFRAKPECVIFNELMQTSKKYIKNLTIIDSLWLSELAPHHFQTAE
B5: in test [2], the binding entry was “binds”.

B6: RID1_(1-271) (G257A, V262K, and Y266A), fused to the Gal4 activation domain (domain or fragment, UniProt F4IE66 1-271)
chain: MPSMAQGELKSFVQNSRPNPKSPTVSPFSMRQKIAEHRRSLPIASVEKRLVEEVQKNDILIIVGETGSGKTTQLPQFLYNAGFCREGKMIGITQPRRIAAVTVAKRVAEECEVQLGQKVGYSIRFDDTTSGSTRLKYMTDGLLLREALLDPHLSRYSVIIVDEAHDRSVHTDVLLALLKKIQRTRSQPVSEKTEFGNVASQVQTTTRDANGPQQNGVLKGYQGRKLSPLKLIIMSASLDARVFSEYFGGAKAVHVQARQFPKDILATVHPE
Regarding B6, the binding entry in test [1] is “binds”.

B7: RID1_(1-271)-AD with the T267I mutation (domain or fragment, UniProt F4IE66 1-271)
chain: MPSMAQGELKSFVQNSRPNPKSPTVSPFSMRQKIAEHRRSLPIASVEKRLVEEVQKNDILIIVGETGSGKTTQLPQFLYNAGFCREGKMIGITQPRRIAAVTVAKRVAEECEVQLGQKVGYSIRFDDTTSGSTRLKYMTDGLLLREALLDPHLSRYSVIIVDEAHDRSVHTDVLLALLKKIQRTRSQPVSEKTEFGNVASQVQTTTRDANGPQQNGVLKGYQGRKLSPLKLIIMSASLDARVFSEYFGGAKAVHVQGRQFPVDILYIVHPE
As for B7, the binding entry in test [1] is recorded as “binds”.

B8: RID1 amino acids 1–271 (RID1_(1–271)), fused to the Gal4 activation domain (domain or fragment, UniProt F4IE66 1-271)
chain: MPSMAQGELKSFVQNSRPNPKSPTVSPFSMRQKIAEHRRSLPIASVEKRLVEEVQKNDILIIVGETGSGKTTQLPQFLYNAGFCREGKMIGITQPRRIAAVTVAKRVAEECEVQLGQKVGYSIRFDDTTSGSTRLKYMTDGLLLREALLDPHLSRYSVIIVDEAHDRSVHTDVLLALLKKIQRTRSQPVSEKTEFGNVASQVQTTTRDANGPQQNGVLKGYQGRKLSPLKLIIMSASLDARVFSEYFGGAKAVHVQGRQFPVDILYTVHPE
With B8, the binding entry in test [1] was “binds”.

B9: RID1_(1-271)-AD with all conserved residues substituted (G257A, R258A, P261K, V262K, I264K, Y266A, P270K, and E271A) (domain or fragment, UniProt F4IE66 1-271)
chain: MPSMAQGELKSFVQNSRPNPKSPTVSPFSMRQKIAEHRRSLPIASVEKRLVEEVQKNDILIIVGETGSGKTTQLPQFLYNAGFCREGKMIGITQPRRIAAVTVAKRVAEECEVQLGQKVGYSIRFDDTTSGSTRLKYMTDGLLLREALLDPHLSRYSVIIVDEAHDRSVHTDVLLALLKKIQRTRSQPVSEKTEFGNVASQVQTTTRDANGPQQNGVLKGYQGRKLSPLKLIIMSASLDARVFSEYFGGAKAVHVQAAQFKKDKLATVHKA
B9: the binding result in test [1] is listed as “binds”.

B10: RID1_(1-271) (P270S and E271K), fused to the Gal4 activation domain (domain or fragment, UniProt F4IE66 1-271)
chain: MPSMAQGELKSFVQNSRPNPKSPTVSPFSMRQKIAEHRRSLPIASVEKRLVEEVQKNDILIIVGETGSGKTTQLPQFLYNAGFCREGKMIGITQPRRIAAVTVAKRVAEECEVQLGQKVGYSIRFDDTTSGSTRLKYMTDGLLLREALLDPHLSRYSVIIVDEAHDRSVHTDVLLALLKKIQRTRSQPVSEKTEFGNVASQVQTTTRDANGPQQNGVLKGYQGRKLSPLKLIIMSASLDARVFSEYFGGAKAVHVQGRQFPVDILYTVHSK
B10: in test [1], the binding entry is listed as “binds”.
